# Laboratory results from PubChem BioAssay AID463173 (ICCB-Longwood Screening Facility, Harvard Medical School, 2010).
# Hit rate of the full screen: of about 52,000 compounds, about 1,700 (3.3%) were called active. No stated cut-off is given here; in the data, active means survival mostly below about 52% (no sharp cut-off); inactive means mostly above about 56%. The list shows a part of the results.
# System: Wild type
# Test: growth inhibition of S. aureus wild type versus tarO mutant, primary screen, teichoic acid synthesis inhibitors, RN4220, OD600 (AID 463173)
# Conditions: S. aureus RN4220 wild type/DeltatarO growth, OD600, 18 h, active compounds read low, screened at 18.75 µg/mL (by protocol)
row,Compound,survival
1,CCN(CC)C(=O)C(C(F)(F)F)C(F)(F)F,inactive: 103%
2,Fc1ccccc1CSc1nnc2c(n1)[nH]c1ccccc12,inactive: 101%
3,COc1ccc(Cn2ccc3nc(C)c(C(=O)N4CCN(c5ccccc5)CC4)cc3c2=O)cc1,inactive: 80%
4,COc1ccc(C(=O)c2oc3ccccc3c2NC(=O)c2ccc(F)cc2)cc1,inactive: 69%
5,O=C(c1cn(CCOc2ccccc2F)c2ccccc12)C1CCCCC1,active: 3%
6,COCCNc1cn[nH]c(=O)c1Cl,inactive: 90%
7,C(=N\C(/N=C/c1cccs1)c1cccs1)/c1cccs1,inactive: 123%
8,CC(=O)NS(=O)(=O)c1ccc(NC(=O)c2ccc(C)c(C)c2)cc1,inactive: 122%
9,O=C(CN1CCC(NC(=O)C2CCCCC2)CC1)Nc1cccc(F)c1,inactive: 111%
10,COc1ccc(NC(=O)CSc2oc(-c3cccs3)nc2S(=O)(=O)c2ccc(Br)cc2)c(OC)c1,inactive: 77%
11,Cc1cccc(Cn2cc(C(=O)c3ccccc3)c(=O)c3cc4c(cc32)OCO4)c1,inactive: 75%
12,Cc1ccc(Nc2sc(C(=O)c3ccccc3)c(N)c2C(=O)NC(C)C)cc1,inactive: 78%
13,CCc1nonc1NC(=O)c1oc2cc(C)c(Cl)cc2c1C,inactive: 90%
14,Cc1nc2ccn(Cc3cccs3)c(=O)c2cc1C(=O)NCc1ccccc1,inactive: 73%
15,COc1ccc2c(c1)c1c(c(=O)n(-c3ccccc3C)c(=O)n1CC(=O)N1CCCC1)n2C,inactive: 127%
16,COc1ccc(C2C=C(c3ccccc3)Nc3nc(NC(=O)/C=C/c4ccc(F)cc4)nn32)cc1 (stereo not given),inactive: 59%
17,CCOc1ccc(CNC(=O)C2CCN(S(=O)(=O)c3cn(C)cn3)CC2)cc1OC,inactive: 73%
18,COc1cccc(CN2C(=O)CN(C3CCCCC3)C(=O)C2c2ccc(OC)c(OC)c2)c1 (stereo not given),inactive: 76%
19,CCc1nnc(NC(=O)CCC(=O)N2CCC(O)CC2)s1,inactive: 100%
20,CCC(C)Sc1c(C(C)C)cnc2c1c(=O)n(C)c(=O)n2C (stereo not given),inactive: 143%
21,COc1ccc(-c2cc(C(F)(F)F)c(C#N)c(SCC(=O)Nc3ccccc3F)n2)cc1,inactive: 85%
22,O=C(NC1CC1)C1CCCN1S(=O)(=O)c1ccccc1 (stereo not given),inactive: 113%
23,COc1cccc(CNc2nccn(-c3ccc(OC)c(OC)c3)c2=O)c1,inactive: 124%

row,Compound,survival
1,Cc1nn(C)c2c1c(-c1ccccc1)cc(=O)n2Cc1ccc(Cl)cc1,inactive: 76%
2,COc1ccc(-n2c(/C=C/c3c(C)[nH]c4ccccc34)nc3ccccc3c2=O)cc1,inactive: 145%
3,CC1=C(C(=O)OC(C)C)C(C)C(C(=O)OC(C)C)=C(C)N1,inactive: 121%
4,CCOc1ccc(S(=O)(=O)N2CCC(N3CCN(Cc4ccc(C)cc4)C(=O)C3=O)CC2)cc1,inactive: 68%
5,COc1ccccc1C(=O)Nc1ccc(OCc2cc(=O)n3ccc(C)cc3n2)cc1,inactive: 85%
6,COCc1cc(C)nc2sc3c(c12)NC(c1ccc(O)cc1)N(c1ccc(C)cc1)C3=O (stereo not given),inactive: 63%
7,COc1ccc(C)cc1-n1c(-c2ccc(C)cc2)cc2c1CC(C)(C)CC2=O,inactive: 108%
8,O=C(Cn1c2ncccc2c(=O)n1-c1ccccc1)Nc1ccc(Cl)cc1C(F)(F)F,inactive: 72%
9,Cc1nn(C(=O)c2ccccc2)c(C)c1S(=O)(=O)N1CCCCCC1,inactive: 80%
10,CCN(C(=O)c1cn(-c2ccc(OC)cc2)c(=O)c2ccccc12)c1cccc(Cl)c1,inactive: 119%
11,CCn1c(=N)c(C(=O)NC2CCCC2)cc2c(=O)n3ccccc3nc21,inactive: 71%
12,O=C(OCc1cccc(C(F)(F)F)c1)c1ccc(-c2nnn(Cc3ccc(F)cc3)n2)cc1,inactive: 83%
13,CCOc1ccc(C(=O)OCc2cc(=O)n3cc(C)sc3n2)cc1,inactive: 57%
14,O=C(O)CSCCc1ccccn1,inactive: 116%
15,Nc1cc(N)nc(Sc2ncnc3ccccc23)n1,inactive: 96%
16,CC(C)N1CCc2nc(SCC(=O)Nc3cccc(F)c3)[nH]c(=O)c2C1,inactive: 83%
17,COc1ccc(-c2nc3scc(CCNC(=O)c4cc(OC)cc(OC)c4)n3n2)cc1,inactive: 67%
18,CCOC(=O)C1CCCN(S(=O)(=O)c2ccc3[nH]c(=O)oc3c2)C1 (stereo not given),inactive: 88%
19,COc1ccccc1NC(=O)c1sc2ncn(Cc3ccccc3Cl)c(=O)c2c1C,inactive: 125%
20,CCc1ccccc1NC(=O)c1sc(-n2nc(C)c(Cc3ccc4c(c3)OCO4)c2C)nc1C,inactive: 117%
21,CCCCCn1cc2c(c1-c1ccc(Cl)cc1)c(=O)n(C)c(=O)n2C,inactive: 88%
22,COc1ccc2c(c1)C=C(C(=O)NCc1cc(Br)ccc1OC)CO2,inactive: 75%
